Data as given in article PMC6919601, “Identification of Plasmodium dipeptidyl aminopeptidase allosteric inhibitors by high throughput screening” (PLoS ONE, 2019).
The whole screen tested about 110,000 compounds, of which about 230 (0.21%) showed an effect of 50% or more. Some of the results follow.

Target: DPAP1 (Plasmodium falciparum, UniProt Q8IIJ9)
Test: primary screen, percent inhibition; read by cleavage of a fluorogenic dipeptide substrate; higher = more effect of the substance
Set-up: species or system P. falciparum D10 trophozoite lysates; single well
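Further: 30 min substrate incubation versus DMSO and 10 µM JCP410 controls.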

DPAP1, sequence (Q8IIJ9 whole entry, looked up): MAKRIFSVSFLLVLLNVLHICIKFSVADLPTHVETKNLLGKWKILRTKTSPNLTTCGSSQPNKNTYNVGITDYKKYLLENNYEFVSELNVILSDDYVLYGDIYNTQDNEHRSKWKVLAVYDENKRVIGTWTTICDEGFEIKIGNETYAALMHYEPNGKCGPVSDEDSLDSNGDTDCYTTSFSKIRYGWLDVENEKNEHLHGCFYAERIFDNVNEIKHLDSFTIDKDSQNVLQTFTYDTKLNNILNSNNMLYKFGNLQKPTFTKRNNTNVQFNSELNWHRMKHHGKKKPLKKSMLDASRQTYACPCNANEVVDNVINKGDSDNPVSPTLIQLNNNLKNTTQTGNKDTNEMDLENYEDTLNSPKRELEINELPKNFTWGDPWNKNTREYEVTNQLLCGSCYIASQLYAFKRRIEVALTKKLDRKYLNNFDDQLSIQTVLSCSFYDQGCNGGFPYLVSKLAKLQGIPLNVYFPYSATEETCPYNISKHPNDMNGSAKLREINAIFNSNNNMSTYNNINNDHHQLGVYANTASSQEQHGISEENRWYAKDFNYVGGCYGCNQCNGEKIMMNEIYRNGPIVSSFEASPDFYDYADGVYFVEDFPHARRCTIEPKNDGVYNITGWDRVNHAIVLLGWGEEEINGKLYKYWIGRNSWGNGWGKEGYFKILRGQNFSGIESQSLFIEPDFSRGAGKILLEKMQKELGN

| Compound | % Inhibition @ 10 uM [%] |
| --- | --- |
| Cn1c(=O)c(-c2cc([N+](=O)[O-])ccc2N)nc2ccccc21 | -4.11 |
| Cc1cc(C)cc(C(=O)NCCSc2c[nH]c3ccccc23)c1 | 1.23 |
| O=C1NC(=O)N(c2ccc(Cl)cc2)C(=O)/C1=C\NC12CN3CN(CN(C3)C1)C2 | -2.16 |
| COc1ccc(CCNC(=O)C2NC(=O)CC2c2ccccc2)cc1OC (centres unmarked) | 0.166 |
| CCOc1ccc(/C=C2\SC(N3CCCC3)=NC2=O)cc1 | -2.98 |
| Cc1ccc(SC(C)C(=O)NCC2CCCO2)cc1 (centres unmarked) | 0.749 |
| CS(=O)(=O)/C=C/[C@H](CCCCN)NC(=O)[C@@H](Cc1nc[nH]n1)NC(=O)c1ccc(Br)cc1 | 13.6 |
| Cn1ccnc1SCC(=O)c1ccc(-c2ccccc2)cc1 | 1.02 |
| COc1cccc(CNC(=O)Cn2c(=O)c3cccn3c3cccnc32)c1OC | -6.92 |
| CCOC(=O)c1c(C)c(-c2ccccc2)n(CC(=O)N(CC)Cc2ccccc2)c1C | 1.72 |
| COc1cc(C2C(C#N)=C(N)N(c3cccnc3)C3=C2C(=O)CCC3)cc(OC)c1OC (centres unmarked) | -0.725 |
| CC(NC(=O)NCc1ccccc1)c1c(-n2cccc2)sc2c1CCCC2 (centres unmarked) | 5.39 |
| CC[C@@H](NC(=O)[C@H](CCS(=O)(=O)c1ccccc1)NC1=NS(=O)(=O)c2ccccc21)C(=O)c1nc(-c2ccccc2)no1 | 4.54 |
| N#CCNC(=O)[C@H](CSCc1ccccc1)NC(=O)N1CCN(C(=O)c2ccco2)CC1 | -5.21 |
| CCCCn1c(=N)c(C(N)=S)cc2c(=O)n3cccc(C)c3nc21 | -3.19 |
| Cc1c(Br)c(C(=O)N2CCN3CCCC3C2)nn1C (centres unmarked) | -1.55 |
| Cc1c2cnn(CC(=O)N3CCN(C4CCCCC4)CC3)c(=O)c2c(C)n1Cc1ccccc1Cl | 2.84 |
| COc1ccccc1C(=O)NC(C)CC(C)C (centres unmarked) | 2.48 |
| O=C(NCCCn1ccnc1)c1nc(Cn2c(C(F)(F)F)nc3ccccc32)no1 | 0.883 |
| CCOP(=O)(OCC)C1(C#N)CC1 | 3.25 |
| CN(C)S(=O)(=O)n1cc(/C=C(\NC(=O)c2ccccc2F)C(=O)NCCCO)c2ccccc21 | -0.0235 |

| Compound | % Inhibition @ 10 uM [%] |
| --- | --- |
| COCCNC(=O)c1cc2ccc3cccnc3c2[nH]1 | 0.36 |
| COc1ccc(CC(=O)NCC2COc3ccccc3O2)cc1OC (centres unmarked) | -3.41 |
| COc1ccc(OC)c(CN2CCN(C(=O)Cc3ccccc3)CC2)c1 | -7.09 |
| COC(=O)c1ccc(/C=C2\N=C(c3ccc(C(C)(C)C)cc3)OC2=O)cc1 | 6.11 |
| CC(C(=O)N1CCN(C(=O)c2ccco2)CC1)n1sc2ccccc2c1=O (centres unmarked) | -4.59 |
| NC(=O)/C(=C\c1ccco1)NC(=O)c1ccccc1 | 4.78 |
| Cc1ccc(Cn2c(=O)c3cccnc3n(CC(N)=O)c2=O)cc1 | -5.27 |
| COc1ccc2ncc(C(=O)c3ccccc3)c(N3CCC(C)CC3)c2c1 | -2.67 |
| Cc1nn(CC(=O)NCCc2c[nH]c3ccccc23)c(=O)c2nn(-c3ccccc3)c(C)c12 | -0.846 |
| CCc1ccc(-c2nc(CSCC(=O)N3CCN(c4ccccn4)CC3)c(C)o2)cc1 | 2.37 |
| CCc1ccccc1N(CC(=O)NC(C)(C)C)S(C)(=O)=O | 1.52 |
| COc1ccc(OC)c2c1CC[C@@H]1NC(=O)CO[C@H]21 | -2.32 |
| C=C(CC(CN1CCOCC1)C(=O)c1ccccc1)C(=O)c1ccccc1 (centres unmarked) | -0.661 |
| O=C(CSc1nc2c(oc3ccccc32)c(=O)n1Cc1ccco1)NCc1ccccc1 | 2.33 |
| Nc1c(C(=O)Nc2ccccc2)sc2ncc([N+](=O)[O-])cc12 | -3.16 |
| O=C(O)c1ccccc1NC(=O)c1ccc([N+](=O)[O-])cc1C(=O)O | 2.5 |
| COCCNCc1c(C(=O)O)n(Cc2ccc(F)cc2)c2cc(C)ccc12 | -6.92 |
| O=C(CCCC(=O)Nc1cccc2ccccc12)Nc1cccc2ccccc12 | 3.32 |
| O=C(NCCCN1CCCC1=O)c1cnn(-c2ccccc2)c1-n1cccc1 | -3.58 |
| Cc1ccc(-c2nc(NC(=O)CCCC(=O)O)sc2C)cc1 | -0.99 |
| CCN1C/C(=C\c2cccs2)C(=O)/C(=C/c2cccs2)C1 | 4.06 |

| Compound | % Inhibition @ 10 uM [%] |
| --- | --- |
| Cc1cc(C)n2nc(NCc3cccs3)nc2n1 | -0.671 |
| CC1C(O)CC(c2ccc(Cl)cc2)NC1c1ccc(Cl)cc1 (centres unmarked) | -2.56 |
| CCC(C(=O)Nc1cc(C)ccc1O)c1ccccc1 (centres unmarked) | 0.528 |
| CN1CCCN(Cc2ccc([N+](=O)[O-])s2)CC1 | 4.81 |
| CCOC(=O)C1CCN(c2ccc([N+](=O)[O-])cn2)CC1 | -1.56 |
| O=C1c2ccc3c4c(ccc(c24)C(=O)N1CCO)C(=O)N(CCO)C3=O | 4.44 |
| Nc1ncc(Br)cc1S(=O)(=O)NCc1ccccc1Cl | 6.98 |
| Cc1cc(C)c(C#N)c(SCC(=O)c2ccc(O)c(O)c2)n1 | 2.01 |
| O=C(NC1CCC(CC2CCC(NC(=O)C3CCCO3)CC2)CC1)C1CCCO1 (centres unmarked) | 0.528 |
| CC1CCCCN1C(=O)CN(C)S(=O)(=O)c1cccc2nsnc12 (centres unmarked) | 0.317 |
| O=c1c2ccccc2nc2n1-c1ccccc1CCC2 | -3.49 |
| CCOCCCNC(=O)c1ccc(CS(=O)(=O)Cc2cccc(Cl)c2)o1 | -0.971 |
| CC(C)CC(=O)Nc1ccc(-c2nc3ncccc3o2)cc1 | -3.63 |
| CCOC(=O)c1c(N)n(-c2ccccc2OC)c2nc3ccccc3nc12 | 4.73 |
| Cc1cc(C(=O)O)c(C)n1Cc1ccccc1 | 3.24 |
| O=C(O)CNS(=O)(=O)c1ccc2c(c1)Cc1cc(S(=O)(=O)NCC(=O)O)ccc1-2 | 1.97 |
| CCOC(=O)C1=C(N)OC2=C(C(=O)CC(c3ccccc3)C2)C1c1cccc(OC)c1OC (centres unmarked) | 3.86 |
| CC1=C(C(=O)OCCOC(C)C)C(c2ccc(Cl)cc2Cl)CC(=O)N1 (centres unmarked) | -2.24 |
| CCCC(=O)NCc1nc2ccccc2n1CC(C)C | -7.33 |
| CC(C)C1Cc2c(c(S)sc(=N)c2C#N)CO1 (centres unmarked) | 30.6 |
